# Data published in the supplement of paper PMC8728848.
# The other results are listed elsewhere or left out.
# Assays:
# Assay in all cases: glycan array binding signal (z-score within array); higher = stronger binding
# Details in all cases: glycan notation: IUPAC condensed, linker removed
# [1] = target: GlcNAc(b1-2)[GlcNAc(b1-6)]Man(a1-6)[GlcNAc(b1-2)Man(a1-3)]Man(b1-4)GlcNAc(b1-4)[Fuc(a1-6)]GlcNAc
# In short: (§1)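 Columns mapping to the same glycan were averaged after glycan names were converted to IUPAC-condensed notation. The data come from 3228 arrays in the Consortium for Functional Glycomics database, limited to those with an available protein sequence. Binding is reported as a within-array Z-score averaged across arrays of one protein sequence and across linkers.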
# [2] = target: GlcNAc(b1-2)[GlcNAc(b1-6)]Man(a1-6)[GlcNAc(b1-2)Man(a1-3)][GlcNAc(b1-4)]Man(b1-4)GlcNAc(b1-4)GlcNAc
# In short: as §1
# [3] = target: GlcNAc(b1-2)[GlcNAc(b1-6)]Man(a1-6)[GlcNAc(b1-4)][GlcNAc(b1-2)Man(a1-3)]Man(b1-4)GlcNAc(b1-4)GlcNAc
# In short: as §1
# [4] = target: GlcNAc(b1-3)Fuc
# In short: as §1
# [5] = target: GlcNAc(b1-3)Gal
# In short: as §1
# [6] = target: GlcNAc(b1-3)Gal(b1-3)GalNAc
# In short: as §1
# [7] = target: GlcNAc(b1-3)Gal(b1-4)Glc
# In short: as §1
# [8] = target: GlcNAc(b1-3)Gal(b1-4)GlcNAc
# In short: as §1
# [9] = target: GlcNAc(b1-3)Gal(b1-4)GlcNAc(b1-2)Man(a1-3)[GlcNAc(b1-3)Gal(b1-4)GlcNAc(b1-2)Man(a1-6)]Man(b1-4)GlcNAc(b1-4)GlcNAc
# In short: as §1
# [10] = target: GlcNAc(b1-3)Gal(b1-4)GlcNAc(b1-2)Man(a1-3)[GlcNAc(b1-3)Gal(b1-4)GlcNAc(b1-2)Man(a1-6)]Man(b1-4)GlcNAc(b1-4)[Fuc(a1-6)]GlcNAc
# In short: as §1
# [11] = target: GlcNAc(b1-3)Gal(b1-4)GlcNAc(b1-2)[GlcNAc(b1-3)Gal(b1-4)GlcNAc(b1-6)]Man(a1-6)[GlcNAc(b1-3)Gal(b1-4)GlcNAc(b1-2)Man(a1-3)]Man(b1-4)GlcNAc(b1-4)GlcNAc
# In short: as §1
# [12] = target: GlcNAc(b1-3)Gal(b1-4)GlcNAc(b1-3)Gal(b1-4)GlcNAc
# In short: as §1
# [13] = target: GlcNAc(b1-3)Gal(b1-4)GlcNAc(b1-3)Gal(b1-4)GlcNAc(b1-2)Man(a1-3)[GlcNAc(b1-3)Gal(b1-4)GlcNAc(b1-3)Gal(b1-4)GlcNAc(b1-2)Man(a1-6)]Man(b1-4)GlcNAc(b1-4)GlcNAc
# In short: as §1
# [14] = target: GlcNAc(b1-3)Gal(b1-4)GlcNAc(b1-3)Gal(b1-4)GlcNAc(b1-2)Man(a1-3)[GlcNAc(b1-3)Gal(b1-4)GlcNAc(b1-3)Gal(b1-4)GlcNAc(b1-2)Man(a1-6)]Man(b1-4)GlcNAc(b1-4)[Fuc(a1-6)]GlcNAc
# In short: as §1
# [15] = target: GlcNAc(b1-3)Gal(b1-4)GlcNAc(b1-3)Gal(b1-4)GlcNAc(b1-2)[GlcNAc(b1-3)Gal(b1-4)GlcNAc(b1-3)Gal(b1-4)GlcNAc(b1-6)]Man(a1-6)[GlcNAc(b1-3)Gal(b1-4)GlcNAc(b1-3)Gal(b1-4)GlcNAc(b1-2)Man(a1-3)]Man(b1-4)GlcNAc(b1-4)[Fuc(a1-6)]GlcNAc
# In short: as §1
# [16] = target: GlcNAc(b1-3)Gal(b1-4)GlcNAc(b1-3)Gal(b1-4)GlcNAc(b1-3)Gal(b1-4)GlcNAc(b1-2)Man(a1-3)[GlcNAc(b1-3)Gal(b1-4)GlcNAc(b1-3)Gal(b1-4)GlcNAc(b1-3)Gal(b1-4)GlcNAc(b1-2)Man(a1-6)]Man(b1-4)GlcNAc(b1-4)GlcNAc
# In short: as §1
# [17] = target: GlcNAc(b1-3)Gal(b1-4)GlcNAc(b1-3)Gal(b1-4)GlcNAc(b1-3)Gal(b1-4)GlcNAc(b1-2)Man(a1-3)[GlcNAc(b1-3)Gal(b1-4)GlcNAc(b1-3)Gal(b1-4)GlcNAc(b1-3)Gal(b1-4)GlcNAc(b1-2)Man(a1-6)]Man(b1-4)GlcNAc(b1-4)[Fuc(a1-6)]GlcNAc
# In short: as §1
# [18] = target: GlcNAc(b1-3)Gal(b1-4)GlcNAc(b1-3)Gal(b1-4)GlcNAc(b1-3)Gal(b1-4)GlcNAc(b1-2)[GlcNAc(b1-3)Gal(b1-4)GlcNAc(b1-3)Gal(b1-4)GlcNAc(b1-3)Gal(b1-4)GlcNAc(b1-6)]Man(a1-6)[GlcNAc(b1-3)Gal(b1-4)GlcNAc(b1-3)Gal(b1-4)GlcNAc(b1-3)Gal(b1-4)GlcNAc(b1-2)Man(a1-3)]Man(b1-4)GlcNAc(b1-4)[Fuc(a1-6)]GlcNAc
# In short: as §1
# [19] = target: GlcNAc(b1-3)Gal(b1-4)GlcNAc(b1-3)Gal(b1-4)GlcNAc(b1-3)Gal(b1-4)GlcNAc(b1-3)Gal(b1-4)GlcNAc(b1-2)Man(a1-3)[GlcNAc(b1-3)Gal(b1-4)GlcNAc(b1-3)Gal(b1-4)GlcNAc(b1-3)Gal(b1-4)GlcNAc(b1-3)Gal(b1-4)GlcNAc(b1-2)Man(a1-6)]Man(b1-4)GlcNAc(b1-4)GlcNAc
# In short: as §1
# [20] = target: GlcNAc(b1-3)Gal(b1-4)GlcNAc(b1-3)Gal(b1-4)GlcNAc(b1-3)Gal(b1-4)GlcNAc(b1-3)Gal(b1-4)GlcNAc(b1-2)Man(a1-3)[GlcNAc(b1-3)Gal(b1-4)GlcNAc(b1-3)Gal(b1-4)GlcNAc(b1-3)Gal(b1-4)GlcNAc(b1-3)Gal(b1-4)GlcNAc(b1-2)Man(a1-6)]Man(b1-4)GlcNAc(b1-4)[Fuc(a1-6)]GlcNAc
# In short: as §1
# [21] = target: GlcNAc(b1-3)Gal(b1-4)GlcNAc(b1-3)Gal(b1-4)GlcNAc(b1-3)Gal(b1-4)GlcNAc(b1-3)Gal(b1-4)GlcNAc(b1-2)[GlcNAc(b1-3)Gal(b1-4)GlcNAc(b1-3)Gal(b1-4)GlcNAc(b1-3)Gal(b1-4)GlcNAc(b1-3)Gal(b1-4)GlcNAc(b1-6)]Man(a1-6)[GlcNAc(b1-3)Gal(b1-4)GlcNAc(b1-3)Gal(b1-4)GlcNAc(b1-3)Gal(b1-4)GlcNAc(b1-3)Gal(b1-4)GlcNAc(b1-2)Man(a1-3)]Man(b1-4)GlcNAc(b1-4)[Fuc(a1-6)]GlcNAc
# In short: as §1
# [22] = target: GlcNAc(b1-3)Gal(b1-4)GlcNAc(b1-3)Gal(b1-4)GlcNAc(b1-3)GalNAc
# In short: as §1
# [23] = target: GlcNAc(b1-3)Gal(b1-4)GlcNAc(b1-3)GalNAc
# In short: as §1
# [24] = target: GlcNAc(b1-3)Gal(b1-4)GlcNAc(b1-3)[GlcNAc(b1-3)Gal(b1-4)GlcNAc(b1-3)]GalNAc
# In short: as §1
# [25] = target: GlcNAc(b1-3)Gal(b1-4)GlcNAc(b1-6)[Gal(b1-3)]GalNAc
# In short: as §1
# [26] = target: GlcNAc(b1-3)Gal(b1-4)GlcNAc(b1-6)[GlcNAc(b1-3)Gal(b1-3)]GalNAc
# In short: as §1
# [27] = target: GlcNAc(b1-3)Gal(b1-4)GlcNAc(b1-6)[GlcNAc(b1-3)]Gal(b1-4)GlcNAc
# In short: as §1
# [28] = target: GlcNAc(b1-3)GalNAc
# In short: as §1
# [29] = target: GlcNAc(b1-3)Man
# In short: as §1
# [30] = target: GlcNAc(b1-3)[GlcNAc(b1-4)][GlcNAc(b1-6)]GlcNAc
# In short: as §1
# [31] = target: GlcNAc(b1-3)[GlcNAc(b1-6)]Gal(b1-4)GlcNAc
# In short: as §1
# [32] = target: GlcNAc(b1-3)[GlcNAc(b1-6)]GalNAc
# In short: as §1
# [33] = target: GlcNAc(b1-4)Gal(b1-4)GlcNAc
# In short: as §1
# [34] = target: GlcNAc(b1-4)GlcNAc
# In short: as §1
# [35] = target: GlcNAc(b1-4)GlcNAc(b1-4)GlcNAc
# In short: as §1
# [36] = target: GlcNAc(b1-4)GlcNAc(b1-4)GlcNAc(b1-4)GlcNAc(b1-4)GlcNAc
# In short: as §1
# [37] = target: GlcNAc(b1-4)GlcNAc(b1-4)GlcNAc(b1-4)GlcNAc(b1-4)GlcNAc(b1-4)GlcNAc
# In short: as §1
# [38] = target: GlcNAc(b1-4)[GlcNAc(b1-6)]GalNAc
# In short: as §1
# [39] = target: GlcNAc(b1-6)Gal(b1-4)GlcNAc
# In short: as §1
# [40] = target: GlcNAc(b1-6)GalNAc
# In short: as §1
# [41] = target: GlcNAc3Prop(b1-4)GlcNAc
# In short: as §1
# [42] = target: GlcNAc6S(b1-3)Gal(b1-4)GlcNAc
# In short: as §1
# [43] = target: Kdn(a2-3)Gal(b1-3)GalNAc
# In short: as §1
# [44] = target: Kdn(a2-3)Gal(b1-3)GlcNAc
# In short: as §1
# [45] = target: Kdn(a2-3)Gal(b1-4)Glc
# In short: as §1
binder,measurement,setting,value
"Siglec-7-SA-PE-180 (Homo sapiens), Q9Y286 (protein) MLLLLLLPLLWGRERVEGQKSNRKDYSLTMQSSVTVQEGMCVHVRCSFSYPVDSQTDSDPVHGYWFRAGNDISWKAPVATNNPAWAVQEETRDRFHLLGDPQTKNCTLSIRDARMSDAGRYFFRMEKGNIKWNYKYDQLSVNVTALTHRPNILIPGTLESGCFQNLTCSVPWACEQGTPPMISWMGTSVSPLHPSTTRSSVLTLIPQPQHHGTSLTCQVTLPGAGVTTNRTIQLNVSYPPQNLTVTVFQGEGTASTALGNSSSLSVLEGQSLRLVCAVDSNPPARLSWTWRSLTLYPSQPSNPLVLELQVHLGDEGEFTCRAQNSLGSQHVSLNLSLQQEYTGKMRPVSGVLLGAVGGAGATALVFLSFCVIFIVVRSCRKKSARPAADVGDIGMKDANTIRGSASQGNLTESWADDNPRHHGLAAHSSGEEREIQYAPLSFHKGEPQDLSGQEATNNEYSEIKIPK",glycan array binding signal (z-score),[1],0.01
same,glycan array binding signal (z-score),[2],-0.355
same,glycan array binding signal (z-score),[3],-0.312
same,glycan array binding signal (z-score),[4],-0.311
same,glycan array binding signal (z-score),[5],-0.272
same,glycan array binding signal (z-score),[6],-0.136
same,glycan array binding signal (z-score),[7],-0.227
same,glycan array binding signal (z-score),[8],-0.229
same,glycan array binding signal (z-score),[9],0.036
same,glycan array binding signal (z-score),[10],0.467
same,glycan array binding signal (z-score),[11],1.07
same,glycan array binding signal (z-score),[12],-0.287
same,glycan array binding signal (z-score),[13],0.981
same,glycan array binding signal (z-score),[14],0.378
same,glycan array binding signal (z-score),[15],0.176
same,glycan array binding signal (z-score),[16],0.059
same,glycan array binding signal (z-score),[17],0.303
same,glycan array binding signal (z-score),[18],0.228
same,glycan array binding signal (z-score),[19],0.071
same,glycan array binding signal (z-score),[20],-0.56
same,glycan array binding signal (z-score),[21],0.683
same,glycan array binding signal (z-score),[22],-0.429
same,glycan array binding signal (z-score),[23],-0.385
same,glycan array binding signal (z-score),[24],-0.227
same,glycan array binding signal (z-score),[25],-0.55
same,glycan array binding signal (z-score),[26],-0.394
same,glycan array binding signal (z-score),[27],-0.191
same,glycan array binding signal (z-score),[28],-0.221
same,glycan array binding signal (z-score),[29],-0.226
same,glycan array binding signal (z-score),[30],1.28
same,glycan array binding signal (z-score),[31],-0.346
same,glycan array binding signal (z-score),[32],-0.27
same,glycan array binding signal (z-score),[33],-0.096
same,glycan array binding signal (z-score),[34],-0.385
same,glycan array binding signal (z-score),[35],-0.388
same,glycan array binding signal (z-score),[36],-0.342
same,glycan array binding signal (z-score),[37],-0.501
same,glycan array binding signal (z-score),[38],-0.237
same,glycan array binding signal (z-score),[39],-0.316
same,glycan array binding signal (z-score),[40],-0.376
same,glycan array binding signal (z-score),[41],0.06
same,glycan array binding signal (z-score),[42],-0.527
same,glycan array binding signal (z-score),[43],0.057
same,glycan array binding signal (z-score),[44],-0.171
same,glycan array binding signal (z-score),[45],0.225
